Experimental data reported in patent US20210403583A1 (ELIXIRON IMMUNOTHERAPEUTICS HONG KONG, published 2021).

T1: recombinant human IL-10Ra fusion protein (R&D Systems) (human, UniProt Q13651 22-235)
T1 sequence (looked up): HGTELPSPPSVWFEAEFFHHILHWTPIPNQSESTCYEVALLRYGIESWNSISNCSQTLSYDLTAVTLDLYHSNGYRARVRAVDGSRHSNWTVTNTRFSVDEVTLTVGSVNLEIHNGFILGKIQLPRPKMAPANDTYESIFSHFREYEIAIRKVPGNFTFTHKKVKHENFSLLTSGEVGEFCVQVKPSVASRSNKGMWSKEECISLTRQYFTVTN


Molecular target: T1, recombinant human IL-10Ra fusion …
Test: ELISA, coated human IL-10Ra fusion protein
Protocol: Materials and methods: Recombinant human IL-10Ra fusion protein (R&D Systems) were immobilized on 96 well microtiter plate at a concentration of 1 μg/ml in Coating Solution (SeraCare) overnight at 4° C. The wells were washed with wash solution (0.05% Tween20 in imidazole-buffered saline) and blocked with 1% BSA. Serial dilutions of Ab/IL-10 fusion proteins were added to wells. After incubation at 37° C. for lhr, the wells were washed with wash solution. Peroxidase-conjugated goat anti-human kappa light chain antibody (Bethyl) was applied to each well at 37° C. for 1 hr incubation. After washing, the wells were developed with TMB substrate for 5-10 min at RT and then stopped with 1 N HCl. Thereafter absorbance was measured at 450 nm and 650 nm. The EC50 value was calculated through GraphPad Prism7.

| EC50 | Binder |
| --- | --- |
| 3.85 nM | recombinant IL10-Fc fusion protein (Fc fusion, Human IL10 fused by a linker to the N-terminus of human IgG1 Fc; expressed in ExpiCHO cells) SPGQGTQSENSCTHFPGNLPNMLRDLRDAFSRVKTFFQMKDQLDNLLLKESLLEDFKGYLGCQALSEMIQFYLEEVMPQAENQDPDIKAHVNSLGENLKTLRLRLRRCHRFLPCENKSKAVEQVKNAFNKLQEKGIYKAMSEFDIFINYIEAYMTMKIRNGGGGSGGGGSGGGG[letters of human IgG1 Fc left out] |
| 7.24 nM | recombinant (IL10)2-Fc fusion protein (Fc fusion, Two human IL10 in tandem fused by linkers to the N-terminus of human IgG1 Fc; expressed in ExpiCHO cells) SPGQGTQSENSCTHFPGNLPNMLRDLRDAFSRVKTFFQMKDQLDNLLLKESLLEDFKGYLGCQALSEMIQFYLEEVMPQAENQDPDIKAHVNSLGENLKTLRLRLRRCHRFLPCENKSKAVEQVKNAFNKLQEKGIYKAMSEFDIFINYIEAYMTMKIRNGGGGSGGGGSGGGGSPGQGTQSENSCTHFPGNLPNMLRDLRDAFSRVKTFFQMKDQLDNLLLKESLLEDFKGYLGCQALSEMIQFYLEEVMPQAENQDPDIKAHVNSLGENLKTLRLRLRRCHRFLPCENKSKAVEQVKNAFNKLQEKGIYKAMSEFDIFINYIEAYMTMKIRNGGGGSGGGGSGGGG[letters of human IgG1 Fc left out] |
